Laboratory results published in the supplement of paper PMC12423691.
Some of the results follow. Binding of human transcription factors and regulators to the viral nucleoprotein by AlphaScreen, crude cell-free proteins, amounts not normalised, one pass. Fold of the Venus control; higher = more signal. No active / inactive call. Single-pass screen; sequences are the whole Swiss-Prot entries looked up by name.

B1: NKX6-1, P78426 (protein)
chain: MLAVGAMEGTRQSAFLLSSPPLAALHSMAEMKTPLYPAAYPPLPAGPPSSSSSSSSSSSPSPPLGTHNPGGLKPPATGGLSSLGSPPQQLSAATPHGINDILSRPSMPVASGAALPSASPSGSSSSSSSSASASSASAAAAAAAAAAAAASSPAGLLAGLPRFSSLSPPPPPPGLYFSPSAAAVAAVGRYPKPLAELPGRTPIFWPGVMQSPPWRDARLACTPHQGSILLDKDGKRKHTRPTFSGQQIFALEKTFEQTKYLAGPERARLAYSLGMTESQVKVWFQNRRTKWRKKHAAEMATAKKKQDSETERLKGASENEEEDDDYNKPLDPNSDDEKITQLLKKHKSSSGGGGGLLLHASEPESSS
B2: AIRE, O43918 (protein)
chain: MATDAALRRLLRLHRTEIAVAVDSAFPLLHALADHDVVPEDKFQETLHLKEKEGCPQAFHALLSWLLTQDSTAILDFWRVLFKDYNLERYGRLQPILDSFPKDVDLSQPRKGRKPPAVPKALVPPPRLPTKRKASEEARAAAPAALTPRGTASPGSQLKAKPPKKPESSAEQQRLPLGNGIQTMSASVQRAVAMSSGDVPGARGAVEGILIQQVFESGGSKKCIQVGGEFYTPSKFEDSGSGKNKARSSSGPKPLVRAKGAQGAAPGGGEARLGQQGSVPAPLALPSDPQLHQKNEDECAVCRDGGELICCDGCPRAFHLACLSPPLREIPSGTWRCSSCLQATVQEVQPRAEEPRPQEPPVETPLPPGLRSAGEEVRGPPGEPLAGMDTTLVYKHLPAPPSAAPLPGLDSSALHPLLCVGPEGQQNLAPGARCGVCGDGTDVLRCTHCAAAFHWRCHFPAGTSRPGTGLRCRSCSGDVTPAPVEGVLAPSPARLAPGPAKDDTASHEPALHRDDLESLLSEHTFDGILQWAIQSMARPAAPFPS
B3: GLIS3, Q8NEA6 (protein)
chain: MMVQRLGLISPPASQVSTACNQISPSLQRAMNAANLNIPPSDTRSLISRESLASTTLSLTESQSASSMKQEWSQGYRALPSLSNHGSQNGLDLGDLLSLPPGTSMSSNSVSNSLPSYLFGTESSHSPYPSPRHSSTRSHSARSKKRALSLSPLSDGIGIDFNTIIRTSPTSLVAYINGSRASPANLSPQPEVYGHFLGVRGSCIPQPRPVPGSQKGVLVAPGGLALPAYGEDGALEHERMQQLEHGGLQPGLVNHMVVQHGLPGPDSQSAGLFKTERLEEFPGSTVDLPPAPPLPPLPPPPGPPPPYHAHAHLHHPELGPHAQQLALPQATLDDDGEMDGIGGKHCCRWIDCSALYDQQEELVRHIEKVHIDQRKGEDFTCFWAGCPRRYKPFNARYKLLIHMRVHSGEKPNKCTFEGCEKAFSRLENLKIHLRSHTGEKPYLCQHPGCQKAFSNSSDRAKHQRTHLDTKPYACQIPGCTKRYTDPSSLRKHVKAHSSKEQQARKKLRSSTELHPDLLTDCLTVQSLQPATSPRDAAAEGTVGRSPGPGPDLYSAPIFSSNYSSRSGTAAGAVPPPHPVSHPSPGHNVQGSPHNPSSQLPPLTAVDAGAERFAPSAPSPHHISPRRVPAPSSILQRTQPPYTQQPSGSHLKSYQPETNSSFQPNGIHVHGFYGQLQKFCPPHYPDSQRIVPPVSSCSVVPSFEDCLVPTSMGQASFDVFHRAFSTHSGITVYDLPSSSSSLFGESLRSGAEDATFLQISTVDRCPSQLSSVYTEG
B4: EPHA5, P54756 (protein)
chain: MRGSGPRGAGRRRPPSGGGDTPITPASLAGCYSAPRRAPLWTCLLLCAALRTLLASPSNEVNLLDSRTVMGDLGWIAFPKNGWEEIGEVDENYAPIHTYQVCKVMEQNQNNWLLTSWISNEGASRIFIELKFTLRDCNSLPGGLGTCKETFNMYYFESDDQNGRNIKENQYIKIDTIAADESFTELDLGDRVMKLNTEVRDVGPLSKKGFYLAFQDVGACIALVSVRVYYKKCPSVVRHLAVFPDTITGADSSQLLEVSGSCVNHSVTDEPPKMHCSAEGEWLVPIGKCMCKAGYEEKNGTCQVCRPGFFKASPHIQSCGKCPPHSYTHEEASTSCVCEKDYFRRESDPPTMACTRPPSAPRNAISNVNETSVFLEWIPPADTGGRKDVSYYIACKKCNSHAGVCEECGGHVRYLPRQSGLKNTSVMMVDLLAHTNYTFEIEAVNGVSDLSPGARQYVSVNVTTNQAAPSPVTNVKKGKIAKNSISLSWQEPDRPNGIILEYEIKYFEKDQETSYTIIKSKETTITAEGLKPASVYVFQIRARTAAGYGVFSRRFEFETTPVFAASSDQSQIPVIAVSVTVGVILLAVVIGVLLSGSCCECGCGRASSLCAVAHPSLIWRCGYSKAKQDPEEEKMHFHNGHIKLPGVRTYIDPHTYEDPNQAVHEFAKEIEASCITIERVIGAGEFGEVCSGRLKLPGKRELPVAIKTLKVGYTEKQRRDFLGEASIMGQFDHPNIIHLEGVVTKSKPVMIVTEYMENGSLDTFLKKNDGQFTVIQLVGMLRGISAGMKYLSDMGYVHRDLAARNILINSNLVCKVSDFGLSRVLEDDPEAAYTTRGGKIPIRWTAPEAIAFRKFTSASDVWSYGIVMWEVVSYGERPYWEMTNQDVIKAVEEGYRLPSPMDCPAALYQLMLDCWQKERNSRPKFDEIVNMLDKLIRNPSSLKTLVNASCRVSNLLAEHSPLGSGAYRSVGEWLEAIKMGRYTEIFMENGYSSMDAVAQVTLEDLRRLGVTLVGHQKKIMNSLQEMKVQLVNGMVPL
B5: ZHX1, Q9UKY1 (protein)
chain: MASRRKSTTPCMVLASEQDPDLELISDLDEGPPVLTPVENTRAESISSDEEVHESVDSDNQQNKKVEGGYECKYCTFQTPDLNMFTFHVDSEHPNVVLNSSYVCVECNFLTKRYDALSEHNLKYHPGEENFKLTMVKRNNQTIFEQTINDLTFDGSFVKEENAEQAESTEVSSSGISISKTPIMKMMKNKVENKRIAVHHNSVEDVPEEKENEIKPDREEIVENPSSSASESNTSTSIVNRIHPSTASTVVTPAAVLPGLAQVITAVSAQQNSNLIPKVLIPVNSIPTYNAALDNNPLLLNTYNKFPYPTMSEITVLSAQAKYTEEQIKIWFSAQRLKHGVSWTPEEVEEARRKQFNGTVHTVPQTITVIPTHISTGSNGLPSILQTCQIVGQPGLVLTQVAGTNTLPVTAPIALTVAGVPSQNNIQKSQVPAAQPTAETKPATAAVPTSQSVKHETALVNPDSFGIRAKKTKEQLAELKVSYLKNQFPHDSEIIRLMKITGLTKGEIKKWFSDTRYNQRNSKSNQCLHLNNDSSTTIIIDSSDETTESPTVGTAQPKQSWNPFPDFTPQKFKEKTAEQLRVLQASFLNSSVLTDEELNRLRAQTKLTRREIDAWFTEKKKSKALKEEKMEIDESNAGSSKEEAGETSPADESGAPKSGSTGKICKKTPEQLHMLKSAFVRTQWPSPEEYDKLAKESGLARTDIVSWFGDTRYAWKNGNLKWYYYYQSANSSSMNGLSSLRKRGRGRPKGRGRGRPRGRPRGSKRINNWDRGPSLIKFKTGTAILKDYYLKHKFLNEQDLDELVNKSHMGYEQVREWFAERQRRSELGIELFEENEEEDEVIDDQEEDEEETDDSDTWEPPRHVKRKLSKSDD
B6: DAB2IP, Q5VWQ8 (protein)
chain: MSAGGSARKSTGRSSYYYRLLRRPRLQRQRSRSRSRTRPARESPQERPGSRRSLPGSLSEKSPSMEPSAATPFRVTGFLSRRLKGSIKRTKSQPKLDRNHSFRHILPGFRSAAAAAADNERSHLMPRLKESRSHESLLSPSSAVEALDLSMEEEVVIKPVHSSILGQDYCFEVTTSSGSKCFSCRSAAERDKWMENLRRAVHPNKDNSRRVEHILKLWVIEAKDLPAKKKYLCELCLDDVLYARTTGKLKTDNVFWGEHFEFHNLPPLRTVTVHLYRETDKKKKKERNSYLGLVSLPAASVAGRQFVEKWYPVVTPNPKGGKGPGPMIRIKARYQTITILPMEMYKEFAEHITNHYLGLCAALEPILSAKTKEEMASALVHILQSTGKVKDFLTDLMMSEVDRCGDNEHLIFRENTLATKAIEEYLKLVGQKYLQDALGEFIKALYESDENCEVDPSKCSAADLPEHQGNLKMCCELAFCKIINSYCVFPRELKEVFASWRQECSSRGRPDISERLISASLFLRFLCPAIMSPSLFNLLQEYPDDRTARTLTLIAKVTQNLANFAKFGSKEEYMSFMNQFLEHEWTNMQRFLLEISNPETLSNTAGFEGYIDLGRELSSLHSLLWEAVSQLEQSIVSKLGPLPRILRDVHTALSTPGSGQLPGTNDLASTPGSGSSSISAGLQKMVIENDLSGLIDFTRLPSPTPENKDLFFVTRSSGVQPSPARSSSYSEANEPDLQMANGGKSLSMVDLQDARTLDGEAGSPAGPDVLPTDGQAAAAQLVAGWPARATPVNLAGLATVRRAGQTPTTPGTSEGAPGRPQLLAPLSFQNPVYQMAAGLPLSPRGLGDSGSEGHSSLSSHSNSEELAAAAKLGSFSTAAEELARRPGELARRQMSLTEKGGQPTVPRQNSAGPQRRIDQPPPPPPPPPPAPRGRTPPNLLSTLQYPRPSSGTLASASPDWVGPSTRLRQQSSSSKGDSPELKPRAVHKQGPSPVSPNALDRTAAWLLTMNAQLLEDEGLGPDPPHRDRLRSKDELSQAEKDLAVLQDKLRISTKKLEEYETLFKCQEETTQKLVLEYQARLEEGEERLRRQQEDKDIQMKGIISRLMSVEEELKKDHAEMQAAVDSKQKIIDAQEKRIASLDAANARLMSALTQLKERYSMQARNGISPTNPTKLQITENGEFRNSSNC
B7: NFKB2, Q00653 (protein)
chain: MESCYNPGLDGIIEYDDFKLNSSIVEPKEPAPETADGPYLVIVEQPKQRGFRFRYGCEGPSHGGLPGASSEKGRKTYPTVKICNYEGPAKIEVDLVTHSDPPRAHAHSLVGKQCSELGICAVSVGPKDMTAQFNNLGVLHVTKKNMMGTMIQKLQRQRLRSRPQGLTEAEQRELEQEAKELKKVMDLSIVRLRFSAFLRASDGSFSLPLKPVISQPIHDSKSPGASNLKISRMDKTAGSVRGGDEVYLLCDKVQKDDIEVRFYEDDENGWQAFGDFSPTDVHKQYAIVFRTPPYHKMKIERPVTVFLQLKRKRGGDVSDSKQFTYYPLVEDKEEVQRKRRKALPTFSQPFGGGSHMGGGSGGAAGGYGGAGGGGSLGFFPSSLAYSPYQSGAGPMGCYPGGGGGAQMAATVPSRDSGEEAAEPSAPSRTPQCEPQAPEMLQRAREYNARLFGLAQRSARALLDYGVTADARALLAGQRHLLTAQDENGDTPLHLAIIHGQTSVIEQIVYVIHHAQDLGVVNLTNHLHQTPLHLAVITGQTSVVSFLLRVGADPALLDRHGDSAMHLALRAGAGAPELLRALLQSGAPAVPQLLHMPDFEGLYPVHLAVRARSPECLDLLVDSGAEVEATERQGGRTALHLATEMEELGLVTHLVTKLRANVNARTFAGNTPLHLAAGLGYPTLTRLLLKAGADIHAENEEPLCPLPSPPTSDSDSDSEGPEKDTRSSFRGHTPLDLTCSTKVKTLLLNAAQNTMEPPLTPPSPAGPGLSLGDTALQNLEQLLDGPEAQGSWAELAERLGLRSLVDTYRQTTSPSGSLLRSYELAGGDLAGLLEALSDMGLEEGVRLLRGPETRDKLPSTAEVKEDSAYGSQSVEQEAEKLGPPPEPPGGLCHGHPQPQVH

Biological target: nucleoprotein N of Crimean-Congo hemorrhagic fever virus
Test: AlphaScreen luminescence signal relative to Venus negative control (fold); higher = stronger binding to CCHFV N
Method: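 AlphaScreen binding of cell-free made, FLAG-GST-tagged human transcription factors and regulators (crude translation products) to biotinylated N protein; signal as fold of the FLAG-GST-Venus control. One pass.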

Row | Binder | AlphaScreen luminescence signal
1 | B1 | 3.44
2 | B2 | 1.86
3 | B3 | 2.56
4 | B4 | 3.02
5 | B5 | 6.09
6 | B6 | 2.14
7 | B7 | 1.49
